# Laboratory results: PubChem BioAssay AID504332 (National Center for Advancing Translational Sciences (NCATS), 2011)
# Among all 350,000 compounds or so, about 31,000 (8.9%) were called active. Inconclusive means that the source gave no clear call. Such entries were picked first, then a sample of the others. Calls come from the whole dose curve; as a rule, active = well fitted inhibition curve with a large enough effect; inconclusive = small, poorly fitted or top-dose-only effect; inactive = no such curve, though single readings can be large or run the other way. Potencies of inconclusive entries are doubtful fits and often do not repeat.
# Target: Histone-lysine N-methyltransferase EHMT2 (Homo sapiens) (UniProt Q96KQ7)
# Assay: qHTS Assay for Inhibitors of Histone Lysine Methyltransferase G9a; note: nearly all actives have a fitted effect of over 75% in size
# Conditions: G9a H3K9 monomethylation, AlphaScreen, 2 h; activity, negative = inhibition: at 59 µM (top of the series) unless noted
# Procedure, shortened: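 Methyltransferase reactions run at room temperature for 2 h (20 nM enzyme, 500 nM biotin-H3K9 peptide, 20 uM SAM) after a 15 min compound preincubation; product detected by AlphaScreen beads and anti-H3K9me1 antibody.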
# % is set by controls: 0 for no effect and ±100 for the full control effect; potency is the fitted concentration of half-maximal effect; tags give direction and shape of the fitted curve.
# Sequence of UniProt Q96KQ7 (Q96KQ7 whole entry, looked up): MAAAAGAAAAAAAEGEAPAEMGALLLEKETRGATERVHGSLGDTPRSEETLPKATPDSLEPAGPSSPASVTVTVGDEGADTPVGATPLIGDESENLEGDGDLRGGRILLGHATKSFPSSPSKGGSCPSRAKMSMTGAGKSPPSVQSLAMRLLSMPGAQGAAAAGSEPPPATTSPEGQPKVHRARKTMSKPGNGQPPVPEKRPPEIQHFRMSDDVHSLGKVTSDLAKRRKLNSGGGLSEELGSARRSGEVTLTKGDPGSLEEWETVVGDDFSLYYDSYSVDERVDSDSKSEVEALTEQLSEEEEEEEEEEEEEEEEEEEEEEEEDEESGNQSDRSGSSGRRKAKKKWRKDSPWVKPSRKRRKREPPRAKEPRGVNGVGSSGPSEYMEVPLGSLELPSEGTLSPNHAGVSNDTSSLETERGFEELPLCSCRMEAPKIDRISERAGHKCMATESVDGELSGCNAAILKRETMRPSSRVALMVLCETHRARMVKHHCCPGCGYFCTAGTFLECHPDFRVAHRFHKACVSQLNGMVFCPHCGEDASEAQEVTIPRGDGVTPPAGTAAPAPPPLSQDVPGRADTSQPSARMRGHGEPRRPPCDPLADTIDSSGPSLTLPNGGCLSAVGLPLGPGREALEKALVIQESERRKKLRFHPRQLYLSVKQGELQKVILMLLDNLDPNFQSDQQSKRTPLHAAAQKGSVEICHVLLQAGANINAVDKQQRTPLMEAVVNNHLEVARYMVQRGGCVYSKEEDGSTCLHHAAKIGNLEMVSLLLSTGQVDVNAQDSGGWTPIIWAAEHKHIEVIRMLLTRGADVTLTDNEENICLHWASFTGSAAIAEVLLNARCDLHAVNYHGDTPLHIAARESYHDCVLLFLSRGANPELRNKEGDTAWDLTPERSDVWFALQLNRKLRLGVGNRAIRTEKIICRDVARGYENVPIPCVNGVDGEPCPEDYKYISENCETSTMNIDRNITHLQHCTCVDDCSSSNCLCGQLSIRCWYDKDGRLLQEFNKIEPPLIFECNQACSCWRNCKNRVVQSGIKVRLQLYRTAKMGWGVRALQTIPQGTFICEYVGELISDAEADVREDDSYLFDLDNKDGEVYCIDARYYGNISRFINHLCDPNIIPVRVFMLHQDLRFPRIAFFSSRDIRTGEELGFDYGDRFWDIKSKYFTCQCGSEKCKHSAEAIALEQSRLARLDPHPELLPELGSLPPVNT
SMILES,Potency,"activity, negative = inhibition"
C/C(=N/NC(=O)c1ccc2c(c1)OCO2)c1ccc(Br)s1,"inconclusive: 56.2 µM [inhibitor, single point]",
COc1cc(OC)c(N(C)S(=O)(=O)c2cccc(C(=O)OCC(=O)NCc3ccco3)c2)cc1Cl,"inconclusive: 44.7 µM [inhibitor, partial curve, poor fit]",
CC(=O)Nc1ccc(Nc2c3c4c(cccc4n(C)c2=O)C(=O)c2ccccc2-3)cc1,inactive,
CC(=O)c1cccc(NC(=O)/C(=C\c2ccco2)NC(=O)c2cccs2)c1,"inconclusive: 89.1 µM [inhibitor, single point]",
COCCOC(=O)C(C#N)c1nc2ccccc2nc1N1CCCC1 (stereo not drawn),"inconclusive: 50.1 µM [inhibitor, partial curve]",
COc1ccc(N2CCN(S(=O)(=O)c3cc(-c4cc(C)no4)ccc3C(C)C)CC2)cc1,active: 22.4 µM,
CCC(Sc1nc2c(c(=O)[nH]1)CCC2)C(=O)Nc1cccc(OC)c1 (stereo not drawn),"inconclusive: 56.2 µM [inhibitor, partial curve, poor fit]",
O=C(NCCN1CCc2ccccc2C1)C1CCN(S(=O)(=O)N2CCCCC2)CC1,active: 50.1 µM,
Cc1ccc(-c2nc3ccc(Br)cn3c2Nc2ccc3c(c2)OCO3)o1,inactive,
Cc1cc(-c2nnnn2-c2ccc(F)cc2)no1,inactive,
CN(C)S(=O)(=O)c1cccc(NC(=O)COC(=O)c2cccn2C)c1,inactive,
CC(=O)c1ccc(NC(=O)CN2C(=O)c3cccnc3Sc3ccccc32)cc1,inactive,
O=C(O)c1ccc2c(c1)N(Cc1cccc(F)c1)C(=O)CS2,"inconclusive: 89.1 µM [inhibitor, single point]",
COCC(=O)Nc1nc2n(n1)C(c1ccccc1Cl)CC(c1ccc(OC)cc1)N2 (stereo not drawn),"inconclusive: 3.16 µM [inhibitor, single point]",
COCCNc1nnc(SCC(=O)c2ccc3c(c2)OCO3)s1,"inconclusive: 39.8 µM [inhibitor, single point]",
CC1SCC(=O)N(CC(=O)Nc2ccc3c(c2)OCO3)C1=O (stereo not drawn),"inconclusive: 89.1 µM [inhibitor, single point]",
CC(=O)C1=C(C)NC(SCC(N)=O)=C(C#N)C1c1cccnc1 (stereo not drawn),"inconclusive: 39.8 µM [inhibitor, single point]",
CC(Oc1ccc2ccccc2c1)C(=O)NNC(=O)Nc1ccccc1 (stereo not drawn),inactive,
COc1ccc(-n2c(CCC(=O)O)ccc2-c2ccccc2)cc1,active: 50.1 µM,
CC(=O)c1cccc(NC(=O)Cn2cnc3c2c(=O)n(C)c(=O)n3C)c1,inactive,
OCCCNC(c1ccccc1)c1ccc(O)cc1 (stereo not drawn),active: 11.2 µM,
CC1(C)CC(c2csc(N)n2)CCO1 (stereo not drawn),inactive,
CCOc1cccc(/C=C2\NC(=S)N(c3ccccc3)C2=O)c1O,"inconclusive: 22.4 µM [inhibitor, partial curve, poor fit]",
CCN1CCN(c2ccc(S(=O)(=O)N3CCCCC3)cc2NC(=O)c2ccc(F)cc2)CC1,active: 10 µM,

SMILES,Potency,"activity, negative = inhibition"
O=C(NC1CCCCC1)c1cc(-c2ccco2)on1,inactive,
Cc1cccc(N2C(=O)CC(Sc3nc(C)cc(C)n3)C2=O)c1 (stereo not drawn),"inconclusive: 89.1 µM [inhibitor, single point]",
Cc1cc(C)c(S(=O)(=O)NCC(c2ccco2)N2CCc3ccccc3C2)c(C)c1 (stereo not drawn),"inconclusive: 89.1 µM [inhibitor, single point]",
Cc1ccc(C(=O)Nc2ccc(Cc3ccncc3)cc2)cc1[N+](=O)[O-],,inactive: 32.7% [at 12.7 µM]
Cn1c(N)c(C(=O)COC(=O)c2cc(S(=O)(=O)N3CCCCC3)ccc2Cl)c(=O)n(C)c1=O,"inconclusive: 79.4 µM [inhibitor, single point]",
OCCN1CCN(CCSc2ccccc2)CC1,"inconclusive: 3.55 µM [inhibitor, full curve, poor fit]",
C[N+]1(CCC(=O)c2ccccc2)CCCCC1,active: 2 µM,
O=C(NNC1=C(C(=O)C(F)(F)F)CCC1)c1ccc(Cl)cc1,"inconclusive: 56.2 µM [inhibitor, partial curve]",
CCOc1cccc(/C(O)=C2/C(=O)C(=O)N(CCOC)C2c2ccc(C)o2)c1 (stereo not drawn),"inconclusive: 79.4 µM [inhibitor, single point]",
CCc1ccc(-n2c(Cc3ccccc3)n[nH]c2=S)cc1,"inconclusive: 3.16 µM [inhibitor, single point]",
S=c1[nH]nc(Nc2ccccc2Cl)s1,active: 1.41 µM,
Oc1ccc(C2Nc3cccc4cccc(c34)N2)cc1,active: 25.1 µM,
COc1ccc(F)cc1S(=O)(=O)NCC(c1ccc2c(c1)OCO2)N1CCN(C)CC1 (stereo not drawn),active: 50.1 µM,
CCOC(=O)c1c(C)[nH]c(C)c1S(=O)(=O)N1CCCC(C(=O)N2CCN(c3ccc(Cl)cc3)CC2)C1 (stereo not drawn),inactive,
COCc1[nH]nc2c1C(c1ccc(OC)c(OC)c1)C(C#N)=C(N)O2 (stereo not drawn),inactive,
O=C1/C(=C/c2ccco2)SC(=S)N1CC1CCCO1 (stereo not drawn),"inconclusive: 28.2 µM [inhibitor, single point]",
CC(=O)c1ccc(S(=O)(=O)Nc2ccc(C(=O)NCC(c3ccccc3)N(C)C)cc2)cc1 (stereo not drawn),"inconclusive: 50.1 µM [inhibitor, partial curve, poor fit]",
CCCCC(c1nnnn1CCOC)N1CCN(C(=O)c2ccco2)CC1 (stereo not drawn),,inconclusive: -54.5% [inhibitor]
Cc1ccc2c(c1)NCC(C(=O)NCc1ccccc1)O2 (stereo not drawn),"inconclusive: 56.2 µM [inhibitor, partial curve]",
CCOc1ccccc1C(=O)Nc1cc2c(cc1N1CCCC1)n(CC)c(=O)n2CC,active: 44.7 µM,
CCCCOC(=O)c1ccc(NC(=O)c2ccc3c(c2)CCN3S(=O)(=O)c2ccccc2)cc1,inactive,
Cc1nnc(SCC(=O)c2ccc([N+](=O)[O-])cc2)s1,inactive,
CCC(=O)N1CCN(c2ccc(NC(=O)COc3ccc(C)cc3C)cc2)CC1,"inconclusive: 50.1 µM [inhibitor, partial curve]",
COc1ccc(C)cc1NC(=O)C(=O)NNC(=O)c1ccco1,"inconclusive: 6.31 µM [inhibitor, single point]",
